“And” between values parts separate entries of the source, which are not always exact repeats. Equal entries are not always repeated. Some of the results follow. Further columns of the screen follow, without active or inactive calls. Peptide text beside a SMILES is read from it. * marks the point of attachment. PhAc = O=C(Cc1ccccc1)*
Experiments:
Experiment in all cases: Primary Screen for Target Class Profiling of Small Molecule Inhibitors of Methyltransferases
[1] = target: Glycine N-methyltransferase (Homo sapiens) (UniProt Q14749); settings: purified enzyme, MTase-Glo SAH luminescence; measured here: GNMT inhibition; at 40 µM; stronger effect = lower value
Method in brief: (§1)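 Each enzyme was reacted with SAM and its substrate, with compounds tested once at 40 uM; SAH formed was read by MTase-Glo luminescence.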

[2] = target: Guanidinoacetate N-methyltransferase (Homo sapiens) (UniProt Q14353); settings: purified enzyme, MTase-Glo SAH luminescence; measured here: GAMT inhibition; at 40 µM; stronger effect = lower value
Method in brief: as §1

[3] = target: Histamine N-methyltransferase (Homo sapiens) (UniProt P50135); settings: purified enzyme, MTase-Glo SAH luminescence; measured here: HNMT inhibition; at 40 µM; stronger effect = lower value
Method in brief: as §1

[4] = target: Nicotinamide N-methyltransferase (Homo sapiens) (UniProt P40261); settings: purified enzyme, MTase-Glo SAH luminescence; measured here: NNMT inhibition; at 40 µM; stronger effect = lower value
Method in brief: as §1

[5] = target: Phenylethanolamine N-methyltransferase (Homo sapiens) (UniProt P11086); settings: purified enzyme, MTase-Glo SAH luminescence; measured here: PNMT inhibition; at 40 µM; stronger effect = lower value
Method in brief: as §1
% is scaled to controls: 0 for no effect and ±100 for the full control effect.

SMILES | activity change, negative = inhibition [1] | activity change, negative = inhibition [2] | activity change, negative = inhibition [3] | activity change, negative = inhibition [4] | activity change, negative = inhibition [5]
Cn1ccnc1CN1CCN(CC2(O)CNCCOC2)CC1 (stereo not given) | 0.502% | 0.834% | 1.17% | 3.41% | -1.64%
O=C(c1cc2cc(F)ccc2[nH]1)N1CCCC(CO)(Cc2cccc(Cl)c2)C1 (stereo not given) | -9.2% | -6.73% | -4.77% | -13.7% | -6.7%
COC[C@H]1CCCN1Cc1cn(-c2ccccc2C)nc1-c1ccc(OC)c(F)c1 | 0.185% | 1.73% | -3.23% | -2.54% | 6.07%
CCCN1C(=O)c2c(C(=O)N3CCN(c4ccccc4)CC3)ncn2CC1(C)C(=O)NCc1ccc(OC)cc1 (stereo not given) | 3.91% | 0% | -0.267% | 5.52% | 2.75%
CN1CCN([C@H]2CCN(C(=O)CCCc3cn[nH]c3)C[C@H]2CCC(=O)O)CC1 | -2.62% | -5.02% | 2.08% | -2% | -1.76%
COc1ccc(OC)c(NC(=O)Cn2c(=O)oc3cc(S(=O)(=O)NCc4ccccc4)ccc32)c1 | 12.4% | 1.44% | 13.1% | 1.94% | 10.5%
CC(C)NC(=O)c1ccc2c(=O)n(Cc3ccccc3)c3nn(Cc4ccc(F)cc4)c(=O)n3c2c1 | 3.74% | 0.864% | 4.3% | 4.66% | 4%
O=S(=O)(NCCn1c(-c2ccncc2)nc2ccccc21)c1ccccc1 | -3% | 2.62% | 0.614% | -4.28% | 2.98%
Cc1ccc(NC(=O)N2CCn3c(C)ccc3C2C(C)C)cc1C (stereo not given) | 5.43% | 0% | 0.631% | -2.08% | 4.27%
Cc1ccc(C)c(N2C(=O)c3cc4occc4n3CC2(C)C(=O)NC2CCCC(C)C2C)c1 (stereo not given) | -5.06% | 3.15% | 3.34% | -12.5% | -7.25%
COCCN1CCCCCC(O)c2cc(C(=O)Nc3ccc(C)cc3)ccc21 (stereo not given) | -11.6% | -13.7% | -6.06% | -12.1% | -9.63%
Cc1cc(C)n2nc(C(=O)N3CCCC4(CNC(=O)O4)C3)cc2n1 (stereo not given) | -10.8% | -6.3% | -3.34% | -11.7% | -6.31%
CC(C)OCCCn1c(=O)c2ccccc2n2c(=O)n(CC(=O)c3ccc(Br)cc3)nc12 | -2.31% | 2.2% | 7.99% | -10.1% | 1.68%
CN(C(=O)CN1CCCn2nc(C(=O)NCc3ccc(Cl)cc3)cc2C1=O)c1ccccc1 | 3.83% | 0% | 14% | 8.54% | 7.8%
CCCn1c(=O)c2ccccc2n2c(=O)n(CC(=O)c3ccc(OC)c(OC)c3)nc12 | -8.9% | 0% | 5.27% | 4.91% | 9.77%
C=CCNC(=O)C[C@@H]1CCN(C(=O)c2ccccc2)C[C@@H]1CC | -1.45% | -2.81% | -3.92% | -5.35% | 7.71%
O=C(CCC1CCCC1)N1CC(N(Cc2ccccn2)C(=O)Nc2ccccc2)C1 | -1.34% | 0.512% | 1.33% | -7.76% | 2.25%
C=C[C@H]1[C@H](O[C@@H]2O[C@H](CO)[C@@H](O)[C@H](O)[C@H]2O)OC=C(C(=O)OC)[C@H]1CCOC(=O)c1cc(O)c(O)c(O)c1 | 0% | -1.71% | -1.11% | -13.2% | 2.27%
CC(c1ccccn1)N(C)Cc1ccc(S(C)(=O)=O)cc1 (stereo not given) | -5.26% | -15.9% | -3.21% | -13.7% | -4.06%
CO/N=C(/C(=O)N[C@@H]1C(=O)N2C(C(=O)O)=C(CSC(=O)c3ccco3)CS[C@H]12)c1csc(N)n1 | -2.66% and -13.1% | 0.005% and -12.6% | 13.8% and 8.41% | -15.9% and -14.5% | 3.5% and -1.06%

SMILES | activity change, negative = inhibition [1] | activity change, negative = inhibition [2] | activity change, negative = inhibition [3] | activity change, negative = inhibition [4] | activity change, negative = inhibition [5]
CC(=O)NC(C(=O)O[C@H]1CCC(C)(C)[C@@H]2CC=C3C(=O)OCC3(O)[C@@]12C)C(C)C (stereo not given in full) | 0% | 2.75% | 4% | -10% | 4.79%
CC1(C(=O)NC2CCCCC2)Cn2c(cc3ccccc32)C(=O)N1Cc1ccccn1 (stereo not given) | -2.11% | 7.31% | 1.95% | 0.7% | 0.103%
CCOC(=O)c1cc2n(n1)CC(C)(C(=O)NCc1ccc(Cl)cc1)N(c1ccc(F)cc1)C2=O (stereo not given) | 3.09% | 3.76% | 8.67% | 1.11% | 3.39%
CCC(=O)N(C1CCOCC1)C1CCN(S(=O)(=O)c2c(C)nn(C)c2C)CC1 | -4.02% | 0.646% | 0.537% | 0.649% | 0.125%
COC(=O)CNC(=O)N1CCCCCCNC(=O)[C@@H]2C[C@@H](c3nc(-c4cccnc4)no3)C[C@@H]21 | -2.49% | -0.271% | 0.512% | -3.69% | -1.72%
COc1cccc(N2CCN(S(=O)(=O)c3cc4[nH]c(=O)[nH]c4cc3Br)CC2)c1 | 12.1% | 0.702% | 10.6% | 2.09% | 4.75%
CC1CCC(NC(=O)C2(C)Cn3c(cc4occc43)C(=O)N2CCCN2CCCCC2)CC1 (stereo not given) | 7.37% | 0% | 3.29% | 8.92% | 4.24%
COCCNC(=O)[C@H]1C[C@H](Oc2cccnc2)CN1C(=O)Nc1cccc(C)c1 | -3.56% | -4.07% | -1.33% | -2.28% | -0.696%
COc1ccc(-c2cc3n(n2)CC(C)(C(=O)NCc2ccccc2)N(CCc2ccc(SC)cc2)C3=O)cc1 (stereo not given) | 4.13% | 0% | 3.9% | 5.38% | -0.555%
CC(O)C1NC(=O)C2CCCN2C1=O (stereo not given) | 2.57% | 4.22% | 10.2% | -7.49% | -3.26%
CN(Cc1ccccc1)C(=O)CCc1nc(C2CCCN2C(=O)C2CCC2)no1 (stereo not given) | -1.7% | -0.294% | 0.682% | -3.1% | 10.5%
CN(C(=O)CCCOc1ccc2[nH]c(=O)ccc2c1)C1CCCCC1 | -0.242% | 11.1% | -11.8% | -9.5% | 5.92%
CC(C)CCn1c(=O)c2ccccc2n2c(SCC(=O)Nc3ccc(Cl)cc3)nnc12 | -0.976% | 2.96% | 3.67% | -8.34% | -1.72%
CCOC(=O)C1CCCN(C(=O)c2cc(-c3ccc(Cl)cc3Cl)c3nncn3n2)C1 (stereo not given) | -5.5% | -5.68% | -2.17% | -9.23% | -12.2%
CC1(C(=O)NC2CCCCC2)Cc2ccccc2C(=O)N1CCc1ccccc1 (stereo not given) | -3.99% | 1.02% | 6.67% | 0.69% | 1.66%
Cc1ccccc1NC(=O)c1cc2n(n1)CC(C)(C(=O)NC1CCCCCC1)N(C)C2=O (stereo not given) | 5.01% | 0.99% | 6.08% | 9.28% | 2.98%
CN1C(=O)c2cc(C(=O)NCc3ccccc3Cl)nn2CC1(C)C(=O)NC1CCCCCC1 (stereo not given) | 4.5% | 6.06% | 9.3% | 9.1% | 2.96%
CC/C=C\C(O)C(O)C1=C(C)C(=O)C2(O1)C(=O)NC(OC)(C(=O)c1ccccc1)C2O (stereo not given) | 0% | -6.2% | 3.4% | -18.5% | 0.245%
CCC(C)NC(=O)c1ccc2c(=O)n(Cc3ccccc3)c3nn(CC(N)=O)c(=O)n3c2c1 (stereo not given) | -0.484% | 2% | -4.12% | -5.69% | 0.526%
O=C(CN1C(=O)C(c2ccccc2)=NC12CCCCCC2)NCC1CCCO1 (stereo not given) | -1.32% | -2.74% | 0.095% | -1.76% | -0.509%

SMILES | activity change, negative = inhibition [1] | activity change, negative = inhibition [2] | activity change, negative = inhibition [3] | activity change, negative = inhibition [4] | activity change, negative = inhibition [5]
O=c1ncn(Cc2ccccc2)c2ccc(-c3ccoc3)nc12 | -26.3% | -8.72% | -3.71% | -14.1% | -6.4%
CC(C)CCn1c(=O)c2ccccc2n2c(=O)n(Cc3ccccc3Cl)nc12 | 1.83% | 1.13% | 1.88% | -4.11% | 2.24%
CC1CCN([C@@H]2[C@H](O)[C@H](CO)O[C@@H]2CNC(=O)c2cccs2)CC1 | -2.01% | 2.4% | 0.329% | 0.6% | 13.5%
CCOC(=O)CNC(=O)[C@@H]1CCCN1C(=O)Cc1ccccc1 (PhAc-Pro-Gly-OEt) | -9.39% | -12.5% | -1.62% | -25.5% | -2.69%
CN1C(=O)c2cc(C(=O)NCc3ccccc3F)nn2CC1(C)C(=O)NCc1ccccc1 (stereo not given) | -1.43% | 4.02% | 3.74% | -9.01% | -1.9%
CCOC(=O)[C@@H]1CN([S+](=O)([O-])Cc2ccccc2)[C@H]2c3ccc(OC)cc3O[C@@H]12 | -6.05% | -4.62% | -1.95% | -10.7% | -2.63%
COC(=O)C1=CO[C@@H](O[C@@H]2O[C@H](CO)[C@@H](O)[C@H](O)[C@H]2O)[C@@H]2[C@@H](C(=O)OC)[C@@H](O)C(O)[C@H]12 (stereo not given in full) | -2.72% | -4.38% | -0.933% | -10.9% | 0.186%
CCN(Cc1ccccc1)c1nc2c(S(=O)(=O)c3ccccc3)nnn2c2ccccc12 | 0.216% | 0% | 2.51% | -2.25% | 0.767%
CC(C)CNC(=O)c1ccc2c(=O)n(C(C)C)c3nn(CC(=O)c4cccc(Cl)c4)c(=O)n3c2c1 | 6.1% | 1.96% | 8.96% | 1.02% | 5.08%
CCC(C)NC(=O)Cn1nc2n(C)c(=O)c3ccc(C(=O)NC4CCCC4)cc3n2c1=O (stereo not given) | 0.92% | 0% | 6.74% | -2.7% | 4.02%
O=C1N=C(O)CN1/N=C/c1ccc(-c2ccc([N+](=O)[O-])cc2)o1 | -11.3% | 11% | 7.37% | -3.08% | 0.539%
Cc1nc(C)c(-c2ccc(C3CCC(CC(=O)O)CC3)cc2)nc1C(N)=O (stereo not given) | -8.54% | -17.2% | -5.85% | -22.5% | -19.7%
COc1cc(/C=C/C(=O)O[C@H]2[C@H](O)[C@@H](CO)O[C@@]2(CO)O[C@H]2O[C@H](COC(=O)c3ccc(O)cc3)[C@@H](O)[C@H](O)[C@H]2O)cc(OC)c1OC | 0.846% | 6.48% | 2.23% | -7.82% | 4.45%
O=S(=O)(c1cccc(-c2nc(-c3ccccc3)no2)c1)N1CCN(c2ccc(Cl)cc2)CC1 | -3.86% | -1.91% | -4.98% | -10.3% | -10.6%
Cc1cc2c(cc3n2CC(C)(C(=O)NC2CCCCCCC2)N(CCc2ccccc2)C3=O)o1 (stereo not given) | 1.67% | 0% | 8.85% | 6.03% | -1.24%
CCCCN1C(=O)c2cc(C(=O)Nc3ccc(C)c(F)c3)nn2CC1(C)C(=O)NC1CCCC1 (stereo not given) | 0.794% | 0% | -29% | -1.62% | 0.419%
Cc1ccc(C)c(N2C(=O)c3cc4sccc4n3CC2(C)C(=O)NC2CCCCC2)c1 (stereo not given) | -8.87% | 3.37% | -12.8% | 2.57% | 0.202%
CCc1ccc(N2C(=O)c3cc4occc4n3CC2(C)C(=O)NC2CCC(C)CC2)cc1 (stereo not given) | -10.3% | 0.248% | -5.42% | -9.41% | -17.4%
